The values that follow come from PubChem BioAssay AID360 (National Center for Advancing Translational Sciences (NCATS), 2006).

Among all 48,000 compounds or so, about 550 (1.1%) were called active. Another 4% or so got no clear call; they are omitted. No stated cut-off is given here; in the data, active means potency below about 15 µM; inconclusive means mostly about 16 µM to 33 µM; inactive means weaker than that. This is one part of the list.
Potency means the concentration at half of the fitted maximal effect.

The test deals with Lysosomal acid glucosylceramidase (Homo sapiens) (UniProt P04062). Nature of the test: Glucocerebrosidase.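 Further: the screen sought inhibitors.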 Particulars: purified enzyme, resorufin glucoside fluorescence (screen aimed at inhibitors), 20 min. The gist of the method: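 Wild-type enzyme at 0.2 nM final in 50mM citric acid/KH2PO4, 10mM sodium taurocholate, 0.01% tween-20, pH 5.9, with resorufin beta-D-glucopyranoside at 30 uM final. Compounds titrated, 20 min at RT, red fluorescence read; AC50 from titration.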
Sequence of UniProt P04062 (P04062 whole entry, looked up): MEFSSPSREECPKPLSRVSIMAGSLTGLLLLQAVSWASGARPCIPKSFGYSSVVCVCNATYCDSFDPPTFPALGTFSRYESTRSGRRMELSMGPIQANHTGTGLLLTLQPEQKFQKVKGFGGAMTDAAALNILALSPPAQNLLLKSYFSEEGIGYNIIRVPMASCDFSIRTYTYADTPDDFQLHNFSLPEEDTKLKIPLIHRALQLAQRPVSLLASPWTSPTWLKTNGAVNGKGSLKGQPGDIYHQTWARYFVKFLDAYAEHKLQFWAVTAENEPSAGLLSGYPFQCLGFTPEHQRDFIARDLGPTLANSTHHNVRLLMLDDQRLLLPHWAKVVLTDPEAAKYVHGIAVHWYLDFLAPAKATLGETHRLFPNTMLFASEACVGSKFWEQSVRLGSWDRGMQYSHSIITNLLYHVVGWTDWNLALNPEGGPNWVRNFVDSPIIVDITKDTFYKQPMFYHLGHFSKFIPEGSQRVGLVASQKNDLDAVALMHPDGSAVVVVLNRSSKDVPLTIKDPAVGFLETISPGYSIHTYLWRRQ
`Cc1occc1-c1nnc(SCC(=O)c2ccc(F)cc2)n1Cc1ccco1`: the Potency is inactive: > 76.9 µM.

Consider `COc1ccc(OC)c(C(=O)COC(=O)C2CC3CCCC(C2)C3=O)c1` (stereo not given), for which the Potency is inactive: > 76.9 µM.

Regarding `Cc1ccc(CNC(=O)C2C3C=CC(C3)C2C(=O)O)cc1` (stereo not given), the Potency was inactive: > 76.9 µM.

`C=CCn1c(SCC(=O)c2cccs2)nc2sc(C)cc2c1=O`: the Potency was inactive: > 76.9 µM.

Turning to `CCOC(=O)CC(=O)CSc1ccc2nnc(-c3cccc(F)c3)n2n1`, the Potency is inactive: > 76.9 µM.

`CCCCNC(=O)c1cc2c(=O)n3cccc(C)c3nc2n(Cc2ccccc2)c1=N`: the Potency was inactive: > 76.9 µM.

As to `COC(=O)c1cc(OC)c(OC)cc1NC(=O)Nc1ccc(OC)cc1OC`, the Potency is inactive: > 76.9 µM.

As to `COC(=O)CC(=O)CSc1nc2c(cc1C#N)CCC2`, the Potency is inactive: > 76.9 µM.

As to `CCN(CC(=O)NC(C)C)C(=O)CCNC(=O)c1ccc(Cl)cc1`, the Potency was inactive: > 76.9 µM.

`Cc1occc1-c1nnc(SCC(=O)N2CCN(c3ccc(F)cc3)CC2)n1C`: the Potency was inactive: > 76.9 µM.

As to `COC(=O)C1=C(C)N(c2ccc(F)c(Cl)c2)C(=O)C1`, the Potency is inactive: > 76.9 µM.

As for `COc1ccc(NC(=O)CN2CCC(C(N)=O)CC2)cc1`, the Potency entry is “inactive”.

Turning to `COc1ccc2[nH]c(=O)c(CN(Cc3nnnn3CCc3ccccc3)CC3CCCO3)cc2c1` (stereo not given), the Potency entry is “inactive”.

Regarding `COc1ccccc1-c1c(C)oc2cc(OC(=O)c3ccco3)ccc2c1=O`, the Potency is inactive: > 76.9 µM.

As for `CCOc1ccc(C(=O)CCN2CCCCC2)cc1`, the Potency was inactive: > 76.9 µM.

With `CC1CN(S(=O)(=O)c2ccc(NC(=O)CCN3C(=O)c4ccccc4C3=O)cc2)CC(C)O1` (stereo not given), the Potency was inactive: > 76.9 µM.

With `COC(=O)CC1=Nc2ccccc2NC(=O)C1`, the Potency was inactive: > 76.9 µM.

Consider `CCn1c(SCC(=O)Nc2nc(C)cs2)nnc1-c1ccco1`, for which the Potency was inactive: > 76.9 µM.

For `Cc1cc(=O)oc2n[nH]c(-c3ccccc3)c12`, the Potency was inactive: > 76.9 µM.

For `CSc1nnc(-c2sc3cc(Cl)ccc3c2Cl)n1C`, the Potency is inactive: > 76.9 µM.

Regarding `O=C(CSc1nnnn1-c1cccnc1)NCc1cccs1`, the Potency is inactive: > 76.9 µM.

As to `CCCCCn1c(N2CCC(C(N)=O)CC2)nc2c1c(=O)[nH]c(=O)n2C`, the Potency was inactive: > 76.9 µM.

Regarding `COc1ccc(C(=O)NCc2oc(-c3ccccc3)cc2C(=O)O)cc1`, the Potency is inactive: > 76.9 µM.

`COc1cc(C(=O)N(Cc2ccco2)Cc2cc3ccccc3[nH]c2=O)cc(OC)c1OC`: the Potency was inactive: > 76.9 µM.

On to `Cc1nn(Cc2ccccc2)c(C)c1NC(=O)CSc1nnc(-c2cc(Cl)ccc2O)n1C`, for which the Potency is inactive: > 76.9 µM.

Take `CCCOc1ccc(NC(=O)C2CCCNC2=O)cc1` (stereo not given): the Potency is inactive: > 76.9 µM.

`CC(C)=CC(=O)OCC(=O)Nc1nc(C)c(Cl)cc1Cl`: the Potency was inactive: > 76.9 µM.

Consider `CCCSc1nsc(SCCC)c1C(N)=O`, for which the Potency was inactive: > 76.9 µM.

For the compound `CCOC(=O)N1CCC(N2Cc3cccc(C(=O)NCc4ccccc4OC)c3C2=O)CC1`, the Potency was inactive: > 76.9 µM.

For the compound `CCC(Sc1nc(=O)cc(N)n1-c1cccc(C)c1)C(=O)Nc1cc(C)on1` (stereo not given), the Potency is inactive: > 76.9 µM.

For `COC(=O)c1c(-c2ccccc2)csc1NC(=O)c1ccco1`, the Potency is inactive: > 76.9 µM.

Regarding `COc1cc(OC)c(C(=O)NC2CCCCCC2)cc1OC`, the Potency was inactive: > 76.9 µM.

For the compound `O=C(c1ccco1)N1CCN(C(=O)c2ccccc2OC(=O)C23CC4CC(CC(C4)C2)C3)CC1`, the Potency was inactive: > 76.9 µM.

Regarding `CCOC(=O)c1cc2c(=O)n3ccccc3nc2n(CCCOC)c1=NC(C)=O`, the Potency is inactive: > 76.9 µM.

`COC(=O)c1[nH]c2ccccc2c1NC(=O)CN1CCN(c2cccc(Cl)c2)CC1`: the Potency is inactive: > 76.9 µM.

Take `CC(=O)c1cc(C#N)c(SCCC(C)C)nc1C`: the Potency was inactive: > 76.9 µM.

For the compound `COC(=O)CSc1nnc(CNC(=O)c2ccccc2OC)n1-c1ccc(OC)cc1`, the Potency is inactive: > 76.9 µM.

Turning to `COCCN(CC(=O)Nc1ccccc1C)S(=O)(=O)c1ccc(S(=O)(=O)N2CCCC2)cc1`, the Potency was inactive: > 76.9 µM.

On to `O=c1[nH]c2cc3c(cc2cc1CN(Cc1ccccc1)Cc1nnnn1Cc1ccco1)OCCO3`, for which the Potency is inactive: > 76.9 µM.

`CCOC(=O)CSc1cc(=O)n(C)c2cc(Cl)ccc12`: the Potency is inactive: > 76.9 µM.

For `NC(=O)C1CCN(C(c2ccccc2F)c2nnnn2Cc2ccco2)CC1` (stereo not given), the Potency was inactive: > 76.9 µM.

On to `CC(C)CN1CN(S(=O)(=O)c2cccs2)c2nc3ccccc3nc21`, for which the Potency is inactive: > 76.9 µM.

As for `CCn1c(SCC(=O)N2CCc3ccccc32)nnc1-c1ccncc1`, the Potency is inactive: > 76.9 µM.

With `Cc1cc(NCCN2CCCCC2)n2c(nc3ccccc32)c1C#N`, the Potency is inactive: > 76.9 µM.

Take `COc1ccc(CNC(=O)C(c2ccco2)N(Cc2cccs2)C(=O)Cc2cccs2)cc1` (stereo not given): the Potency was inactive: > 76.9 µM.

For `CC12CCC(=O)N1C(C(=O)Nc1cccc3ccccc13)CS2` (stereo not given), the Potency is inactive: > 76.9 µM.

On to `COc1ccc(CN2CCN(S(=O)(=O)c3ccc(F)cc3)CC2)cc1OC`, for which the Potency was inactive: > 76.9 µM.

For the compound `CCCC(CCC)C(=O)Nc1ccncc1`, the Potency is inactive: > 76.9 µM.

`Cc1cc(C)c2nc3c(c(C(=O)O)c2c1)CCC3`: the Potency was inactive: > 76.9 µM.

As for `CN(C)c1ccc(C(CC(=O)O)NC(=O)c2ccc(Cl)cc2)cc1` (stereo not given), the Potency was inactive: > 76.9 µM.

Regarding `CCOC(=O)c1cccc(NS(=O)(=O)c2cnc[nH]2)c1`, the Potency was inactive: > 76.9 µM.

As for `CCCCC1CCC(C(=O)Nc2c(C)n(C)n(-c3ccccc3)c2=O)CC1` (stereo not given), the Potency was inactive: > 76.9 µM.

In the case of `CCCn1c(=O)c2ccccc2n2c(SCC(=O)c3ccc(F)cc3)nnc12`, the Potency is inactive: > 76.9 µM.

On to `Cc1nc(NCc2ccco2)nc2c1C(=O)CC(C)C2` (stereo not given), for which the Potency was inactive: > 76.9 µM.

Consider `CCOC(=O)CNC(=O)CSc1ncnc2c1cnn2-c1ccccc1`, for which the Potency is inactive: > 76.9 µM.

In the case of `CN1CCN(C(=O)c2ccc(N(Cc3ccc(Cl)cc3)S(C)(=O)=O)cc2)CC1`, the Potency was inactive: > 76.9 µM.

For `CCOC(=O)CSC1=C(C#N)C(c2sccc2C)CC(=O)N1` (stereo not given), the Potency was inactive: > 76.9 µM.

Regarding `c1ccc(-c2csc(N3CCCCCC3)n2)cc1`, the Potency is inactive: > 76.9 µM.

As to `C=C(C)Cn1c(SCC#N)nc2ccccc2c1=O`, the Potency is inactive: > 76.9 µM.

As for `CCCc1nnc(NC(=O)Cn2c(=O)oc3ccccc32)s1`, the Potency was inactive: > 76.9 µM.

Regarding `Cc1ccc(S(=O)(=O)N2CCN(C(=O)CSc3nc4ccccc4o3)C2)cc1`, the Potency was inactive: > 76.9 µM.

Regarding `CSc1ccccc1-n1nnnc1SCC(=O)NCc1cccs1`, the Potency is inactive: > 76.9 µM.

As for `O=C(NC1CCCCC1)N1CCC(n2cnc3ccccc32)CC1`, the Potency was inactive: > 76.9 µM.

As for `CCn1c(=O)n(CC)c2cc(S(=O)(=O)N3CCC(c4ccccc4)CC3)ccc21`, the Potency is inactive: > 76.9 µM.

As for `c1cncc(-c2nnc(SCCSc3nnc(-c4cccnc4)o3)o2)c1`, the Potency was inactive: > 76.9 µM.

As for `CN(C)C=NCCn1c(N2CCOCC2)nc2c1c(=O)n(C)c(=O)n2C`, the Potency is inactive: > 76.9 µM.

Take `COc1ccc(CCNC(=O)CSc2nc(N)c(C#N)c(-c3cccs3)c2C#N)cc1OC`: the Potency was inactive: > 76.9 µM.

In the case of `CCN(CC(=O)Nc1ccc2c(c1)OCCO2)Cc1cc(=O)oc2c(C)c(C)ccc12`, the Potency is inactive: > 76.9 µM.

Regarding `CCN(CCO)C(=O)C12CCC(C)(C(=O)C1)C2(C)C` (stereo not given), the Potency is inactive: > 76.9 µM.

Consider `COc1cccc(OC)c1C(=O)N1CCN(Cc2ccncc2)CC1`, for which the Potency was inactive: > 76.9 µM.

In the case of `CCOc1cc2[nH]c(=O)n(CC3CCC(C(=O)NC4CCCCC4)CC3)c(=O)c2cc1OCC` (stereo not given), the Potency was inactive: > 76.9 µM.

As for `CC(=O)CSc1ncnc2c1oc1ccccc12`, the Potency was inactive: > 76.9 µM.

With `O=C(Nc1nnc(CCc2ccccc2)s1)C1CCCO1` (stereo not given), the Potency is inactive: > 76.9 µM.

For `O=c1c2ccccc2sn1-c1ccc(S(=O)(=O)N2CCCCC2)cc1`, the Potency was inactive: > 76.9 µM.

With `Cc1ccccc1CS(=O)(=O)Cc1ccc(C(=O)NCc2ccco2)o1`, the Potency was inactive: > 76.9 µM.

Turning to `CC(NC(=O)c1ccc2c(c1)OCO2)C(c1cccs1)N1CCOCC1` (stereo not given), the Potency is inactive: > 76.9 µM.

In the case of `O=C(O)COc1ccccc1Cc1ccccc1`, the Potency is inactive: > 76.9 µM.

Take `Cc1cc(Br)c2c(c1)=C(c1sc(N3CCCCCC3)nc1O)C(=O)N=2`: the Potency is inactive: > 76.9 µM.

As to `CC1CCN(CCn2c(=S)[nH]c3ncccc3c2=O)CC1`, the Potency was inactive: > 76.9 µM.

In the case of `CCOCCCNC(=O)C1CCC(CNS(=O)(=O)c2cccc3nsnc23)CC1` (stereo not given), the Potency is inactive: > 76.9 µM.

As for `Cc1nc2ccccc2c2c1C(=O)N(CCC1=CCCCC1)C2=O`, the Potency was active: 14.3 µM.

Take `Cc1ccc(NCc2nnc(SCC(=O)c3ccccc3)n2Cc2ccco2)c(C)c1`: the Potency was inactive: > 76.9 µM.

Take `O=c1[nH]c2c(s1)C(c1ccco1)C1C3CCC(C3)C1S2` (stereo not given): the Potency was inactive: > 76.9 µM.

On to `CCOCCCNC(=O)c1ccc(CS(=O)(=O)Cc2cccc(C)c2)o1`, for which the Potency was inactive: > 76.9 µM.

As for `O=C(Nc1cccnc1)c1cc(-c2ccc3c(c2)OCO3)on1`, the Potency is inactive: > 76.9 µM.

Take `O=C(NC1CC1)C1CCCN1S(=O)(=O)c1ccc2ccccc2c1` (stereo not given): the Potency is inactive: > 76.9 µM.

Take `Cc1ccc(S(=O)(=O)CCc2nnc(NC(=O)c3ccccn3)s2)cc1`: the Potency is inactive: > 76.9 µM.

For the compound `Clc1ccc(Nc2nc(-c3cccs3)cs2)nc1`, the Potency is inactive: > 76.9 µM.

For the compound `COc1ccc(-c2cc(=O)n(-c3nc4ccccc4[nH]3)[nH]2)cc1`, the Potency was inactive: > 76.9 µM.

Take `CCOC(=O)N1CCN(S(=O)(=O)c2ccc(OCC)c3ccccc23)CC1`: the Potency is inactive: > 76.9 µM.
